# No constants are given. Whether binding was seen depends on the method and setting. Binding seen in cells or lysates may run through a third protein. Some binding calls cover weakened binding; strength is not graded here.
# Protein sequences, listed by entry. Tags and fused reporters are not part of them. Lines headed by an entry give the natural chain unless they say otherwise; changes in a name come on top. Chains listed by the source or under a name are the forms on record and can include a tag or linker.
# Nbs1-(1–335)-K160M-GST (O60934, form named): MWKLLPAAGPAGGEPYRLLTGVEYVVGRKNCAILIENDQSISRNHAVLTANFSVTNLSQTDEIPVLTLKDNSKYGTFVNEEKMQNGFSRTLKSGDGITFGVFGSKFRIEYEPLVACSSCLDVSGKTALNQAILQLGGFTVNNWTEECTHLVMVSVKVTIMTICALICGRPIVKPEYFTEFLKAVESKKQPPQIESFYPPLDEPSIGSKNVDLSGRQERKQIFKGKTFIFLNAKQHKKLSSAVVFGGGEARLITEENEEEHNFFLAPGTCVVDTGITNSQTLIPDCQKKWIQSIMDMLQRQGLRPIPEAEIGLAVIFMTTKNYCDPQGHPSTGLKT
# Nbs1-(1–335)-R28A-GST (O60934, form named): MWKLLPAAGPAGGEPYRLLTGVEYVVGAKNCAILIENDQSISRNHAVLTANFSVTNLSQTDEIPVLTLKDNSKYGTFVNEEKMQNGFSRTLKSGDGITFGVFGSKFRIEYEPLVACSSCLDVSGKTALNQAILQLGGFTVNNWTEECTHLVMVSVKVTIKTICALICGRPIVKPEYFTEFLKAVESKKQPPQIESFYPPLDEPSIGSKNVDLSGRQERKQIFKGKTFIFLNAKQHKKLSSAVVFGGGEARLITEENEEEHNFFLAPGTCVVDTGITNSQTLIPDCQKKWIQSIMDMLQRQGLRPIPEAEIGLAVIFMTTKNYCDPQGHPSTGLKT
# B1: CtIP-(200–600)-T245A/T315A (domain or fragment, UniProt Q99708 200-600)
# chain: ANEMRKVSKSSTHPQHNPNENEILVADTYDQSQSPMAKAHGTSSYAPDKSSFNLATVVAETLGLGVQEESETQGPMSPLGDELYHCLEGNHKKQPFEESTRNTEDSLRFSDSTSKAPPQEELPTRVSSPVFGATSSIKSGLDLNTSLSPSLLQPGKKKHLKTLPFSNTCISRLEKTRSKSEDSALFTHHSLGSEVNKIIIQSSNKQILINKNISESLGEQNRTEYGKDSNTDKHLEPLKSLGGRTSKRKKTEEESEHEVSCPQASFDKENAFPFPMDNQFSMNGDCVMDKPLDLSDRFSAIQRQEKSQGSETSKNKFRQVTLYEALKTIPKGFSSSRKASDGNCTLPKDSPGEPCSQECIILQPLNKCSPDNKPSLQIKEENAVFKIPLRPRESLETENVL
# B2: CtIP-(200–600)-S233A/S276A/S347A (domain or fragment, UniProt Q99708 200-600)
# chain: ANEMRKVSKSSTHPQHNPNENEILVADTYDQSQAPMAKAHGTSSYTPDKSSFNLATVVAETLGLGVQEESETQGPMAPLGDELYHCLEGNHKKQPFEESTRNTEDSLRFSDSTSKTPPQEELPTRVSSPVFGATSSIKSGLDLNTSLAPSLLQPGKKKHLKTLPFSNTCISRLEKTRSKSEDSALFTHHSLGSEVNKIIIQSSNKQILINKNISESLGEQNRTEYGKDSNTDKHLEPLKSLGGRTSKRKKTEEESEHEVSCPQASFDKENAFPFPMDNQFSMNGDCVMDKPLDLSDRFSAIQRQEKSQGSETSKNKFRQVTLYEALKTIPKGFSSSRKASDGNCTLPKDSPGEPCSQECIILQPLNKCSPDNKPSLQIKEENAVFKIPLRPRESLETENVL
# Key:
# [1] = molecular target: Nbs1-(1–335)-K160M-GST (human) (UniProt O60934); experiment: pull-down; GST pull-down from Sf21 insect cells co-infected with baculoviruses for the GST-tagged partner (bait) and the Flag-tagged partner; NETN buffer; immunoblotting
# [2] = molecular target: Nbs1-(1–335)-R28A-GST (human) (UniProt O60934); experiment: as above
Binder,binding [1],binding [2]
B1,binds,
B2,,no binding

# — paper PMC3585124
